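Step 1: Grow cells in 96-well plates. Step 2: Expose to compound for 48 hours at 5 concentrations. Step 3: Interpolate endpoints linearly; if unreached, use highest concentration. GI50: concentration for 50% inhibition of growth.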 Activity calls are given as the source filed them. No stated cut-off is given here; in the data, active = GI50 up to about 1.1 µM and inactive = higher.

The assay concerns NCI-H322M. Kind of assay: NCI tumour cell line growth inhibition, 48 h.
Take `CCOC(=O)c1c(NC(=O)c2cccs2)sc2c1CCC2`: the GI50 is inactive: > 100 µM. For `Cc1ccc(C)c(NC(=O)NCc2ccc(Cl)cc2)c1`, the GI50 was inactive: > 100 µM.

For the molecule `Cc1nc2ccccc2nc1N1CCCC1`, the GI50 was inactive: > 100 µM. With `CCCCNc1nc(SC)nc2[nH]cnc12` the figure was inactive: > 100 µM; with `OC1(C(O)(c2ccc(-c3ccccc3)cc2)c2ccc(-c3ccccc3)cc2)CCCCC1`, inactive: > 100 µM.

Turning to `N#Cc1ccccc1Sc1ccccc1N`, the GI50 is inactive: > 100 µM. With `Nc1ccccc1.O=P(O)(OP(=O)(O)c1ccccc1)c1ccccc1`, the GI50 was inactive: > 100 µM. Regarding `CC(=O)/N=C1\C=C(NC(C)=O)C(=O)c2ccccc21`, the GI50 was inactive: 13.7 µM. `Cc1ccc(N2C(=O)C3c4[nH]c5ccccc5c4C4CCC(C(C)(C)C)CC4C3C2=O)cc1` (configuration not stated): the GI50 was inactive: 11.6 µM. With `C/C(=N\NC(C)(C)C)c1sc(-c2nc(C)c(/C(C)=N/NC(C)(C)C)s2)nc1C` the figure was inactive: > 100 µM. On to `N#CC(C#N)=c1[nH]c2cccc3c2-c2c(cccc2c3=C(C#N)C#N)[nH]1`, for which the GI50 was inactive: > 100 µM. Consider `COC(=O)c1c(O)ccc2c1C1(Cc3ccccc3C1=O)C(O)O2` (configuration not stated), for which the GI50 is inactive: 49.1 µM. Consider `CC(=O)Nc1ccc(OC2=CCN(C)CC2)cc1`, for which the GI50 is inactive: > 100 µM.

Take `O=c1n(Cc2ccccc2)c2ccccc2n1CC1CS1` (configuration not stated): the GI50 was inactive: > 100 µM.

On to `CC(=O)OCc1ccc(O)c(C=O)c1`, for which the GI50 was inactive: 38.2 µM.

On to `N/C(=N\c1cccc(Cl)c1)c1ccccc1N`, for which the GI50 is inactive: > 100 µM. Turning to `O=C(CC(c1ccccc1)c1c(O)c2ccccc2oc1=O)c1ccccc1` (configuration not stated), the GI50 was inactive: > 100 µM.

Turning to `CCCCCCCC1c2cc3nc(cc4[nH]c(cc5nc(cc([nH]2)[C@@]1(C)CC(=O)N(C)C)C(C)=C5CCC(=O)O)c(CCC(=O)O)c4C)C=C3C` (some centres not stated), the GI50 is inactive: 38.8 µM.

`Cc1ccc(C(=O)N/N=C(\N=N\c2ccccc2)c2ccc(N(C)C)cc2)cc1`: the GI50 was inactive: > 100 µM. Take `C[C@@H](CO)OCOCc1ccccc1`: the GI50 was inactive: > 100 µM. In the case of `CCOC(=O)C1CN(C2CC2)CCC1=O` (configuration not stated), the GI50 is inactive: > 100 µM. Take `COC(=O)C1=NN2c3ccccc3CN([C@@H](C)c3ccccc3)C(=O)[C@@H]2[C@H]1c1ccccc1`: the GI50 was inactive: > 100 µM. For `Cc1ccc(S(=O)(=O)N/N=C\c2c3ccccc3[n+]([O-])c3ccccc23)cc1` the value was inactive: 7.23 µM. In the case of `O=C(NCCCCCN1CCC2(CCCCC2)CC1)C(C1CCCCC1)C1CCCCC1`, the GI50 is inactive: 3.85 µM. In the case of `O=C(OCC1OC2OC(c3ccccc3)(n3ccc4c([N+](=O)[O-])ccnc43)OC2C1OC(=O)c1ccccc1)c1ccccc1` (configuration not stated), the GI50 was inactive: > 100 µM. Consider `Cc1ccc(Nc2nc3c(s2)C(=O)c2ccccc2C3=O)cc1`, for which the GI50 was inactive: 1.43 µM. Consider `Cc1cc(C)nc(NS(=O)(=O)c2ccc(NC(=O)NC(F)(F)F)cc2)n1`, for which the GI50 was inactive: > 100 µM.

Take `COc1cc2c(cc1OC)C1=CCC(c3ccccc3)[N+]1(C)CC2` (configuration not stated): the GI50 is inactive: > 100 µM. Consider `CN1C2CCC1CC(CCOC(c1ccc(F)cc1)c1ccc(F)cc1)C2` (configuration not stated), for which the GI50 was inactive: 14.5 µM.

For `CC(=O)O[C@H]1CCC2[C@@H]3CCC4NC(=O)C(C#N)C[C@]4(C)C3CC[C@@]21C` (some centres not stated), the GI50 was inactive: > 10 µM.

With `C=C1C(=O)OC2C1C(OC(=O)/C(C)=C/C)CC(O)(CCl)C1C(O)C3OC3(C)C21O` (configuration not stated), the GI50 was inactive: > 50 µM. In the case of `COc1ccc(/N=C\c2ccc(N(CCC#N)S(=O)(=O)c3ccccc3)cc2C)cc1`, the GI50 is inactive: 52 µM. As to `N=C1N=C(N)c2cc3c(cc21)SCCSCCCSCCS3`, the GI50 was inactive: 25.2 µM. Consider `COc1c(O)cc2c3c(ccnc13)NC=C2`, for which the GI50 is inactive: > 100 µM.

As for `CCN(CC)CCOC(=O)CCN1CC2CCC(CC2)C1`, the GI50 was inactive: > 100 µM. For `O=C(/C(=C/c1ccccc1)c1ccccc1)N1c2ccccc2CC1c1c[nH]c2ccccc12` (configuration not stated) the value was inactive: > 100 µM; for `CCOc1ccccc1/N=N/C1C(=O)N(C(=O)CC(=O)Nc2ccccc2OC)N=C1C` (configuration not stated), inactive: 51.3 µM; for `O=C(Sc1c(-c2ccccc2)c(=O)n(-c2ccccc2)c(=S)n1-c1ccccc1)c1ccco1`, inactive: > 100 µM. For `COC(=O)C(Cc1nc2ccc(Cl)cc2nc1O)C(=O)C(=O)Nc1cc(C)ccc1C` (configuration not stated) the value was inactive: > 100 µM; for `Cc1cccc2c1Sc1ccccc1C2NC(=O)CN(C)C` (configuration not stated), inactive: > 100 µM. With `O=c1c(Nc2ccccc2)cn(CCOc2ccc(Cl)cc2)c(=O)n1CCOc1ccc(Cl)cc1` the figure was inactive: > 100 µM; with `Cc1cn(C2CC(N)C(CN)O2)c(=O)[nH]c1=O` (configuration not stated), inactive: > 100 µM; with `CC(=O)c1cccc(NC(=O)C(=O)C(C2OC(=O)c3ccccc32)[N+](=O)[O-])c1` (configuration not stated), inactive: > 100 µM. In the case of `Cc1cc2c(c(/C=N/c3ccc(N(C)C)cc3)c1)OC1(C=C2)Oc2ccccc2C(=O)N1C` (configuration not stated), the GI50 is inactive: 14.9 µM. For `Cn1nc2ccc3nccc(NCCNCCCl)c3c2n1`, the GI50 is inactive: > 100 µM. In the case of `CSc1nc2c(ncn2C2OC(CO)C(O)C(O)C2O)c(=O)[nH]1` (configuration not stated), the GI50 is inactive: > 94.6 µM. Regarding `NS(=O)(=O)c1nnc(NS(=O)(=O)c2ccc(F)cc2)s1`, the GI50 was inactive: > 100 µM. For `N#Cc1c2ccccc2cn1-c1ccc(F)cc1` the value was inactive: 31.6 µM. For `CCc1ccc(/C=C/C(=O)C2CN(CC)CCC2(O)/C=C/c2ccc(CC)cc2)cc1` (configuration not stated) the value was inactive: 12.1 µM. Consider `Cc1ccc(S(=O)(=O)N/N=C2\C3CC4CC(C3)C2C4)cc1` (configuration not stated), for which the GI50 was inactive: > 100 µM. Take `O=c1cc(N2CCCC2)[nH]c(=O)n1Cc1ccccc1`: the GI50 was inactive: > 100 µM.

For the molecule `C=CCN(c1cc(OC)c2[nH]c(C(=O)OCC)c(C)c2c1[N+](=O)[O-])S(C)(=O)=O`, the GI50 is inactive: 24 µM. As for `NCCCCNCCCNC(=O)c1nc(-c2nc(CCN)sc2Cl)sc1Cl`, the GI50 is inactive: > 100 µM. For `O=P(O)(O)C(NCC(O)CN1CCOCC1)P(=O)(O)O` (configuration not stated) the value was inactive: > 100 µM; for `OC(CC(O)(C(F)(F)Cl)C(F)(F)Cl)c1ccccc1` (configuration not stated), inactive: > 10 µM; for `CC12CC(c3ccccc3O1)C(C(=O)Nc1nccs1)C(=O)N2` (configuration not stated), inactive: > 100 µM. For the molecule `Clc1cc(-c2ccccc2)nc(Nc2nc3ccccc3[nH]2)n1`, the GI50 was inactive: 73.8 µM. Regarding `O=C(O)/C(Cc1ccc([N+](=O)[O-])cc1)=N\O`, the GI50 was inactive: > 100 µM. In the case of `COc1cccc(C(=O)C2C(=O)N(C)CCc3ccccc32)c1OC` (configuration not stated), the GI50 is inactive: > 100 µM.

On to `CC(C)N(CCn1c2c3ccccc3ccc2c2oc(=O)c3ccccc3c21)C(C)C`, for which the GI50 is inactive: > 100 µM. On to `COC(=O)CCc1cc(OC)c2c(c1)C(C(=O)OC)C(c1ccc(OC)c(OC)c1)O2` (configuration not stated), for which the GI50 was inactive: > 100 µM.

For `CN(C)C(=O)C(F)(F)C(c1ccc(F)cc1)C1C(=O)N(C)C(=O)N(C)C1=O` (configuration not stated), the GI50 is inactive: > 100 µM. Consider `COc1c(CCl)cc(-c2cc(=O)c3ccccc3s2)cc1CCl`, for which the GI50 is inactive: > 100 µM. As to `COc1cc(C(c2ccc3c(c2)OCO3)C2SCCCS2)cc(OC)c1OC` (configuration not stated), the GI50 was inactive: 3.47 µM. As to `N[C@H](C(=O)O)[C@H]1ON=C(Cl)[C@@H]1O`, the GI50 is inactive: 8.65 µM. Consider `C/C(=C\CNc1nc(Cl)nc2[nH]cnc12)CO`, for which the GI50 is inactive: > 100 µM.

As for `N#CC(C#N)[C@@H]1CCC=C(Sc2ccccc2)[C@H]1Sc1ccccc1`, the GI50 is inactive: 6.15 µM. As for `CN(c1ccccc1)c1c(Cl)c(=O)oc2c1ccc1occc12`, the GI50 was inactive: > 100 µM.

For `Cc1ccc(S(=O)(=O)N2CCC3(C(/C=C/c4ccccc4)=Nc4ccccc43)C2c2ccccc2)cc1` (configuration not stated), the GI50 is inactive: > 100 µM. With `CCOC(=O)/C=C/c1c(C)[nH]c(=O)[nH]c1=O`, the GI50 was inactive: > 250 µM. Regarding `N#CN1CC[C@@H]2CC3(CCC2C1)OCCO3` (some centres not stated), the GI50 was inactive: > 100 µM.

Consider `NCCSc1nc2ccccc2c(=O)n1-c1ccccc1`, for which the GI50 is inactive: > 100 µM.

As for `O=C1C(Br)=CC2(C=C1Br)CCNC1=C2C(=O)c2cccnc2C1=O`, the GI50 was inactive: 19.4 µM.

Take `O=S(=O)(/N=S(/Nc1ccccc1)C(Cl)Cl)c1ccccc1` (configuration not stated): the GI50 is inactive: > 100 µM. With `CC(=O)OC1C[C@H]2C(OC(=O)c3ccccc3)C3C4(OC(C)=O)COC4C[C@H](OC(C)=O)[C@@]3(C)C(OC(C)=O)[C@H](OC(C)=O)C(=C1C)C2(C)C` (some centres not stated) the figure was inactive: > 100 µM; with `COC(=O)C1[C@@H](C(=O)OC)C(=O)O[C@H]1c1cc(OC)c(OC)c(OC)c1` (some centres not stated), inactive: > 100 µM. For `CC(=O)Oc1ccc(/C=C/C(=O)O[C@@H](C(=O)O)[C@@H](OC(=O)/C=C/c2ccc(OC(C)=O)c(OC(C)=O)c2)C(=O)O)cc1OC(C)=O` the value was inactive: > 100 µM; for `Cc1[nH]n(-c2ccc(S(=O)(=O)O)cc2)c(=O)c1/N=N/c1ccccc1`, inactive: > 100 µM. With `O=[N+]([O-])c1ccc2c(c1)n1c(N3CCCC3)[n+]3ccccc3c1c1c3ccccn3c(N3CCCC3)[n+]21.[O-][Cl+3]([O-])([O-])[O-].[O-][Cl+3]([O-])([O-])[O-]` the figure was inactive: > 100 µM; with `COc1ccc(S(=O)(=O)N(CC(=O)O)c2ccccc2)cc1`, inactive: > 100 µM; with `O=C(O)c1cc2c(cc1S(=O)(=O)O)C1C(C3C2C2(Cl)C(Cl)=C(Cl)C3(Cl)C2(Cl)Cl)C2(Cl)C(Cl)=C(Cl)C1(Cl)C2(Cl)Cl` (configuration not stated), inactive: 23.6 µM. In the case of `O=[N+]([O-])c1ccc(Oc2c(Cl)cc(S(=O)(=O)N/C(=N\O)Nc3ccc(Cl)cc3)cc2Cl)cc1`, the GI50 is inactive: 10.5 µM.

(Values after ChEMBL document CHEMBL1201862, “PubChem BioAssay data set” (2004).)
